In this assay the target is human full length TWEAK (human, UniProt O43508). The experiment in a line: Scatchard analysis, 125I-TWEAKR-Fc on CV-1 cells transfected with human full length TWEAK mixed 1:30 with Raji cells, 4° C. The protocol: The cells were incubated with serial dilutions of 125-I labeled human TWEAKR-Fc for 2 hours at 4° C. Free and bound probe was separated by microfuging the samples through a phalate oil mixture in plastic tubes. Supernatants and pellets were gamma-counted.

B1: TWEAKR-Fc (Fc fusion)
chain: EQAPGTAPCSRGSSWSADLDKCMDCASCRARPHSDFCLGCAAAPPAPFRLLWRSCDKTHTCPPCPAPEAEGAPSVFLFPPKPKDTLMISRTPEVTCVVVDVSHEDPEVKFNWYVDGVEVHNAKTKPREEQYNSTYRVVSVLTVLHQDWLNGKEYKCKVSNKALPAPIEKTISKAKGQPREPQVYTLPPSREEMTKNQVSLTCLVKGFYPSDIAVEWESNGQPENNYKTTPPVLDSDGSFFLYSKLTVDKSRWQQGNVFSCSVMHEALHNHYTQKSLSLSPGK
As for B1, the Ka was approximately 4.5e+08 M⁻¹.

These data come from US20050208046A1, “TWEAK receptor” (Immunex Corporation, published 2005).
